Source: PubChem BioAssay AID686978 (National Center for Advancing Translational Sciences (NCATS), 2013)
Hit rate of the full screen: of about 420,000 compounds, about 64,000 (15%) were called active. Inconclusive means that the source gave no clear call. Such entries were picked first, then a sample of the others. The call rests on the fitted dose curve; in most records, active means well fitted inhibition curve with a large enough effect; inconclusive means small, poorly fitted or top-dose-only effect; inactive means flat fitted curve, though single readings scatter. No potency is given beside an inconclusive call; the fits are too rough. Some structures have more than one record in an assay (separate samples or runs), and their calls can disagree.
On the % scale 0 is the no-effect control and ±100 the full control effect; potency means the concentration at half of the fitted maximal effect; tags describe the fitted curve by direction and shape.

Assay: qHTS for Inhibitors of human tyrosyl-DNA phosphodiesterase 1 (TDP1): qHTS in cells in absence of CPT; further: nearly all actives have a fitted effect of over 55% in size
Settings: DT40 Tdp1-/- hTDP1 cells, no CPT, ATP luminescence, 48 h; activity change, negative = growth inhibition: at 46.2 µM (top of the series) unless noted
Outline: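 A cellular qHTS used chicken DT40 cells lacking endogenous Tdp1 but carrying stably transfected human TDP1. Compounds were applied without camptothecin, and cell growth kinetics were judged by ATP-dependent luminescence after ≥48 hr.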
For `O=S(=O)(c1ccccc1)[C@@]1(c2ccc(Br)cc2)C[C@@H]2ON=C(c3ccccc3)[C@@H]2C1`, the Potency was active: 11.6 µM. For `NS(=O)(=O)c1ccc(NC(=O)/C=C/c2ccc(S(=O)(=O)NCc3ccco3)cc2)cc1`, the Potency was inconclusive [inhibitor, single point]. In the case of `Cc1ccc(-n2nc3c(n2)/C(=N/O)CC/C3=N\O)cc1`, the Potency was active: 16.4 µM. In the case of `N#Cc1ccc(CSc2nnc(-c3ccncc3)o2)cc1`, the Potency was inconclusive [inhibitor, single point]. For `O=C(O)c1ccc(CSc2nnc(Cc3ccccc3)o2)cc1`, the “activity change, negative = growth inhibition” value was inactive: 0.684%. For `Cc1c(C(=O)Nc2cc(F)ccc2F)sc2nc3n(c(=O)c12)CCCCC3`, the “activity change, negative = growth inhibition” value was inactive: 9.71%. In the case of `CCOc1ccc2nc(N3CCN(C(=O)c4ccco4)CC3)sc2c1`, the Potency was active: 18.4 µM. In the case of `NC(=O)C1CC2(C1)CC(C(N)=O)C2` (configuration not stated), the “activity change, negative = growth inhibition” value was inactive: -3.1%. With `NC(Cc1ccc(Cl)cc1)c1csc(Nc2cc(Oc3ccccc3)ncn2)n1` (configuration not stated) the Potency was inconclusive [inhibitor, full curve, poor fit]. In the case of `CCOC(=O)c1cc2c(=O)n3ccccc3nc2n(CC2CCCO2)c1=NC(=O)c1ccccc1C` (configuration not stated), the “activity change, negative = growth inhibition” value was inactive: 0.25%. For `CCCc1ccc2oc(C(=O)N3CCN(CC(=O)NC(C)C)CC3)c(C)c2c1`, the Potency was inconclusive [inhibitor, single point]. In the case of `CN(C(=O)Cn1cc(C(F)(F)F)cc(Cl)c1=O)C1CCS(=O)(=O)C1` (configuration not stated), the “activity change, negative = growth inhibition” value was inactive: -4.83%. For `OC(c1ccccc1)c1nc(-c2cc(F)cc(F)c2)cs1` (configuration not stated), the Potency was inconclusive [inhibitor, partial curve, poor fit]. With `O=[N+]([O-])c1ccc(F)cc1OCc1cccc(S(=O)(=O)N2CCOCC2)c1` the Potency was inconclusive [inhibitor, single point]. With `CN(C)/C=C/c1[nH]c(=O)[nH]c(=O)c1[N+](=O)[O-]` the “activity change, negative = growth inhibition” value was inactive: -22.7%. In the case of `COCCNc1nc(Oc2ccc(C(N)=O)cc2)c2sccc2n1`, the Potency was inconclusive [inhibitor, single point]. In the case of `CCc1cccc2c(C(=O)COC(=O)c3nccnc3N)c[nH]c12`, the Potency was inconclusive [inhibitor, single point]. In the case of `CCSc1nc(C)cc(C)c1S(=O)(=O)c1ccccc1C`, the Potency was active: 20.6 µM. For `CCN1C(=O)[C@H]2[C@@H](c3ccc(C)cc3)N3C(=O)N(c4cccc(Cl)c4)C(=O)[C@@]3(Cc3ccc(Cl)cc3)[C@H]2C1=O`, the Potency was inconclusive [inhibitor, single point]. In the case of `COC(=O)c1sccc1NC(=O)c1cccc(OC)c1`, the Potency was active: 20.6 µM. For `COc1ccc(NC(C)=O)cc1NC(=O)C1(c2cccs2)CCOCC1`, the “activity change, negative = growth inhibition” value was inactive: 14.9%. In the case of `COc1cc(/C=C2\SC(N3CCC(C)CC3)=NC2=O)ccc1O`, the Potency was inconclusive [inhibitor, single point]. With `Clc1ccc(N2O[C@H]3C=C[C@@H]2C3)nc1` the Potency was inconclusive [inhibitor, single point]. In the case of `COC(=O)NNC(=S)NCc1ccc(C)cc1`, the “activity change, negative = growth inhibition” value was inactive: 9.02%. For `CCCCC1=CC2=CC(=O)C(C)(OC(=O)CC)C(=O)C2=CN1Cc1ccc2c(c1)OCO2` (configuration not stated), the Potency was active: 14.6 µM. With `Cc1cc(C)cc(-n2c(SCC(=O)N3CCC(C)CC3)nc3c([nH]c4ccccc43)c2=O)c1` the “activity change, negative = growth inhibition” value was inactive: -8.04%. For `O=C(O)c1ccccc1Cc1ccc2c(c1)CCCC2`, the “activity change, negative = growth inhibition” value was inactive: -8.15%. With `O=C(NNC(=S)Nc1ccccc1)c1cc(-c2cccnc2)nc2ccccc12` the “activity change, negative = growth inhibition” value was inactive: -14.4%. With `CN(Cc1ccccc1)CC(O)COc1ccc(CNCCc2cccnc2)cc1` (configuration not stated) the Potency was inconclusive [inhibitor, single point]. In the case of `CCOc1ccc2[nH]c(=O)c(CN(CCOC)C(=O)N3CCOCC3)cc2c1`, the “activity change, negative = growth inhibition” value was inactive: -8.1%. For `O=C(CSc1nc2c([nH]c3ccccc32)c(=O)n1-c1ccc(F)cc1)N1CCc2ccccc21`, the Potency was inconclusive [inhibitor, partial curve]. For `COc1cccc2ccc(CN3CCC4(CC3)c3ccccc3[C@@H](NC(=O)c3ccccc3)[C@@H]4O)nc12`, the Potency was inconclusive [inhibitor, single point]. With `CN(CC(=O)NC(=O)NC1CCCCC1)Cc1ccccc1` the Potency was inconclusive [inhibitor, single point]. In the case of `COc1ccc(CN(C(=O)c2ccc3c(c2)OCCO3)C(C(=O)NC2CCCCC2)c2ccc3ncccc3c2)cc1` (configuration not stated), the Potency was active: 18.4 µM. With `NC(=O)C1CCCN(C(=O)c2ccc(Cl)c(S(=O)(=O)N3CCc4ccccc43)c2)C1` (configuration not stated) the Potency was inconclusive [inhibitor, partial curve]. For `Cc1[nH]c(C)c(S(=O)(=O)Nc2cccc(Cl)c2C)c1C(=O)N1CCCCC1`, the Potency was inconclusive [inhibitor, partial curve]. For `CCC(=O)N1CCc2cc(Br)cc(S(=O)(=O)NCCN3CCCCC3CC)c21` (configuration not stated), the “activity change, negative = growth inhibition” value was inactive: -1.08%. With `CCOC(=O)C1CCN(C2=NC(=O)/C(=C/c3ccc(O)cc3)S2)CC1` the Potency was active: 7.31 µM. With `Cc1cc(=O)oc2cc(OCCc3ccccc3)ccc12` the Potency was inconclusive [inhibitor, full curve]. In the case of `NC(Cc1ccc(C(F)(F)F)cc1)c1csc(Nc2cc(Oc3ccccc3)ncn2)n1` (configuration not stated), the Potency was inconclusive [inhibitor, single point]. With `COc1ccc(NS(=O)(=O)c2ccc(NC(=O)c3ccc(N(C)S(C)(=O)=O)cc3)cc2)cc1` the Potency was active: 8.2 µM. With `CCCCOc1ccc(C(=O)NN2C(=O)NC3(CCCCC3)C2=O)cc1OC` the “activity change, negative = growth inhibition” value was inactive: -21.1%. With `Cc1nc(SC(C)C(=O)NC2CCCC2)c2ccccc2n1` (configuration not stated) the Potency was inconclusive [inhibitor, single point]. In the case of `CSc1ccc(C(O)c2ncc(-c3cccc(OCc4ccccc4)c3)[nH]2)cc1` (configuration not stated), the Potency was inconclusive [inhibitor, single point]. For `COc1ccc(CN2C(=O)C(CC(=O)NCCc3ccccn3)CC(C(=O)N3CCCCCC3)=C2C)cc1` (configuration not stated), the “activity change, negative = growth inhibition” value was inactive: 9.11%. With `Cc1cc(/C=C2/NC(=O)NC2=O)c(C)n1-c1cccnc1` the “activity change, negative = growth inhibition” value was inactive: -0.13%. With `CC1(C)CC(=O)C2=C(C1)OC1=C(C(=O)CC(C)(C)C1)C2c1ccccc1` the “activity change, negative = growth inhibition” value was inactive: -15.7%. For `NNC(=O)C1=NOC2COC3(CCN(c4ncccn4)CC3)OCC12` (configuration not stated), the Potency was inconclusive [inhibitor, partial curve]. For `Cc1ccc(S(=O)(=O)c2nc(Nc3ccccc3N3CCOCC3)sc2Cl)cc1`, the Potency was inconclusive [inhibitor, single point]. In the case of `COC(=O)c1ccc(NCC(=O)Nc2cc(C)cc(C)c2)cc1`, the “activity change, negative = growth inhibition” value was inactive: -26.1%. With `COc1ccc(CCNC(=O)Cn2cnc3scc(-c4ccccc4)c3c2=O)cc1OC` the Potency was inconclusive [inhibitor, single point]. For `COc1ccc2[nH]cc(CCNS(=O)(=O)Cc3ccccc3)c2c1`, the Potency was inconclusive [inhibitor, partial curve, poor fit]. For `CCN(C(=O)COC(=O)C1CCN(S(=O)(=O)c2ccc(C)c(C)c2)CC1)C1CCS(=O)(=O)C1` (configuration not stated), the “activity change, negative = growth inhibition” value was inactive: -4.69%. In the case of `COc1ccc(NC(=O)C2CCC(N3C(=O)C4CCCCC4C3=O)CC2)cc1` (configuration not stated), the “activity change, negative = growth inhibition” value was inactive: -27.8%. In the case of `COc1cccc(C2c3[nH]c4ccccc4c3CCN2CCCn2cccn2)c1` (configuration not stated), the Potency was inconclusive [inhibitor, single point]. In the case of `COc1ccc(Nc2oc(-c3ccc(F)cc3)nc2C#N)cc1`, the Potency was inconclusive [inhibitor, partial curve]. In the case of `COc1ccc(NC(=O)CSc2nnc3c4c(nc(-c5ccccc5)n23)CC(C)(C)OC4)cc1`, the Potency was inconclusive [inhibitor, partial curve, poor fit]. With `CCC(NS(=O)(=O)c1ccc(C)cc1)C(=O)N1CCOCCOCCOCCOCC1` (configuration not stated) the “activity change, negative = growth inhibition” value was inactive: -0.69%. In the case of `O=C(NCCN1CCCC(O)C1)c1cc(COc2ccc(F)cc2Cl)on1` (configuration not stated), the “activity change, negative = growth inhibition” value was inactive: 4.48%. With `COc1ccc(OC)c(NC(=O)c2cccc3c2C(=O)N(C2CCCCC2)C3)c1` the Potency was active: 16.4 µM. With `COc1ccc(C2/C=C\CN(S(=O)(=O)c3ccc(-c4ccccc4)cc3)CC(=O)N2Cc2ccc(F)cc2)cc1` (configuration not stated) the Potency was inconclusive [inhibitor, single point]. With `O=C(Nc1ccc2c(c1)OCCO2)c1ccccc1F` the Potency was active: 14.6 µM. With `CC(=O)Nc1nc(-c2ccc(Cl)cc2)ns1` the Potency was inconclusive [inhibitor, partial curve]. For `CSc1ncccc1C(=O)OCC(=O)NC1CCCc2ccccc21` (configuration not stated), the Potency was inconclusive [inhibitor, single point]. In the case of `CCN(CC)C(=O)c1ccccc1NC(=O)CN1C(=O)c2ccccc2C1=O`, the “activity change, negative = growth inhibition” value was inactive: 7.91%. With `COc1ccc(CNS(=O)(=O)c2cc3c(cc2Cl)N(C(C)=O)CCO3)cc1` the Potency was inconclusive [inhibitor, single point]. For `O=C(c1ccc(Sc2ccc(F)cc2)c([N+](=O)[O-])c1)N1CCOCC1`, the Potency was inconclusive [inhibitor, partial curve]. In the case of `COc1ccc(Cl)cc1C=CC=Nc1ccccc1O`, the Potency was active: 18.4 µM. With `CC1CCCC(C)N1C(=O)COC(=O)c1ccc(S(=O)(=O)N(C)c2ccccc2)cc1` (configuration not stated) the Potency was inconclusive [inhibitor, single point]. With `O=C(CSc1nc(-c2ccccc2)cn1-c1ccccc1F)Nc1ccc(F)cc1` the Potency was inconclusive [inhibitor, single point]. With `CCOc1ccc(NC(=O)CCC(=O)N/N=C/c2ccc([N+](=O)[O-])s2)cc1` the Potency was inconclusive [inhibitor, partial curve, poor fit]. For `CC1CCN(C(c2ccccc2)c2sc3nc(-c4ccco4)nn3c2O)CC1` (configuration not stated), the Potency was inconclusive [inhibitor, single point].
